{"source": "patent US7423058B2", "about": "“Inhibitors of hepatitis C virus NS3 protease” (Schering Corporation, priority 2004, dated 2008)"}
{"biological_target": "Recombinant heterodimeric HCV NS3/NS4A protease (strain 1a) (Hepatitis C virus genotype 1a, UniProt P27958)", "test": "Spectrophotometric assay for HCV protease inhibitory activity (chromogenic ester substrates)", "format": "biochemical", "details": "Table 1: Ketones; read-out: Ki* Range", "units": {"Ki": "nM"}}
{"smiles": "CC(C)[C@H](NC(=O)N[C@H](C(=O)N1C[C@H]2[C@@H]([C@H]1C(=O)NC(CC1CC1)C(=O)C(N)=O)C2(C)C)C(C)(C)C)C(=O)CCc1ccccc1", "note": "(stereo partly shown) [compound 4068]", "Ki": "< 75"}
{"smiles": "C=CCNC(=O)C(=O)C(CCC(F)(F)F)NC(=O)[C@@H]1[C@@H]2[C@H](CN1C(=O)[C@@H](NC(=O)N[C@H](C(=O)C1CC1)C(C)C)C(C)(C)C)C2(C)C", "note": "(stereo partly shown) [compound 4093]", "Ki": "< 75"}
{"smiles": "C=CCNC(=O)C(=O)C(CCC(F)(F)F)NC(=O)[C@@H]1[C@@H]2[C@H](CN1C(=O)[C@@H](NC(=O)N[C@H](C(=O)C1CC1)C1CCCCC1)C1CCCCC1)C2(C)C", "note": "(stereo partly shown) [compound 4144]", "Ki": "< 75"}
{"smiles": "CC(C)[C@H](NC(=O)N[C@H](C(=O)N1C[C@H]2[C@@H]([C@H]1C(=O)NC(CC1CC1)C(=O)C(N)=O)C2(C)C)C(C)(C)C)C(=O)c1ccccn1", "note": "(stereo partly shown) [compound 4022]", "Ki": "< 75"}
{"smiles": "CC1(C(=O)[C@@H](NC(=O)N[C@H](C(=O)N2C[C@H]3[C@@H]([C@H]2C(=O)NC(CC2CCC2)C(=O)C(N)=O)C3(C)C)C(C)(C)C)C2CCCCC2)CC1", "note": "(stereo partly shown) [compound 4127]", "Ki": "< 75"}
{"smiles": "CC(C)[C@H](NC(=O)N[C@H](C(=O)N1C[C@H]2[C@@H]([C@H]1C(=O)NC(CC1CC1)C(=O)C(N)=O)C2(C)C)C(C)(C)C)C(=O)c1ccc(F)cc1", "note": "(stereo partly shown) [compound 4064]", "Ki": "< 75"}
{"smiles": "C=CCNC(=O)C(=O)C(CCC)NC(=O)[C@@H]1[C@@H]2[C@H](CN1C(=O)[C@@H](NC(=O)N[C@H](C(=O)c1cccs1)C(C)C)C(C)(C)C)C2(C)C", "note": "(stereo partly shown) [compound 4106]", "Ki": "< 75"}
{"smiles": "CC1(C(=O)[C@@H](NC(=O)N[C@H](C(=O)N2C[C@H]3[C@@H]([C@H]2C(=O)NC(CC2CC2)C(=O)C(N)=O)C3(C)C)C(C)(C)C)C2CCCCC2)CC1", "note": "(stereo partly shown) [compound 4025]", "Ki": "< 75"}
{"smiles": "CC(C)C(=O)[C@@H](NC(=O)N[C@H](C(=O)N1C[C@H]2[C@@H]([C@H]1C(=O)NC(CC1CC1)C(=O)C(N)=O)C2(C)C)C(C)(C)C)C1CCC1", "note": "(stereo partly shown) [compound 4058]", "Ki": "< 75"}
{"smiles": "CC1([C@H](NC(=O)N[C@H](C(=O)C2CC2)C2CCCCC2)C(=O)N2C[C@H]3[C@@H]([C@H]2C(=O)NC(CC2CC2)C(=O)C(N)=O)C3(C)C)CCCCC1", "note": "(stereo partly shown) [compound 4066]", "Ki": "< 75"}
{"biological_target": "Recombinant heterodimeric HCV NS3/NS4A protease (strain 1a) (Hepatitis C virus genotype 1a, UniProt P27958)", "test": "Spectrophotometric assay for HCV protease inhibitory activity (chromogenic ester substrates)", "format": "biochemical", "details": "Table 3, Esters; read-out: Ki* Range", "units": {"Ki": "nM"}}
{"smiles": "CC(C)(C)[C@H](NC(=O)NC1(C(=O)OCc2ccccc2)CCCC1)C(=O)N1C[C@H]2[C@@H]([C@H]1C(=O)NC(CC1CCC1)C(=O)C(N)=O)C2(C)C", "note": "(stereo partly shown) [compound 4641]", "Ki": "> 250"}
{"smiles": "C=CCNC(=O)C(=O)C(CC1CCC1)NC(=O)[C@@H]1[C@@H]2[C@H](CN1C(=O)[C@@H](NC(=O)N[C@H](C(=O)OC(C)(C)C)C(C)(C)C)C(C)(C)C)C2(C)C", "note": "(stereo partly shown) [compound 4604]", "Ki": "76 to 250"}
{"smiles": "C=CCOC(=O)C1(NC(=O)N[C@H](C(=O)N2C[C@H]3[C@@H]([C@H]2C(=O)NC(CC2CC2)C(=O)C(N)=O)C3(C)C)C(C)(C)C)CCCCC1", "note": "(stereo partly shown) [compound 4501]", "Ki": "< 75"}
{"smiles": "CC(C)(C)[C@H](NC(=O)N[C@H](C(=O)N1C[C@H]2[C@@H]([C@H]1C(=O)NC(CC1CC1)C(=O)C(N)=O)C2(C)C)C1(C(F)(F)F)CC1)C(=O)OCC1CC1", "note": "(stereo partly shown) [compound 4620]", "Ki": "76 to 250"}
{"smiles": "CCCCNC(=O)C(=O)C(CCCC)NC(=O)[C@@H]1[C@@H]2[C@H](CN1C(=O)[C@@H](NC(=O)N[C@H](C(=O)OC(C)(C)C)C(C)(C)C)C1CCCCC1)C2(C)C", "note": "(stereo partly shown) [compound 4621]", "Ki": "76 to 250"}
{"smiles": "CC(C)(C)OC(=O)C1(NC(=O)N[C@H](C(=O)N2C[C@H]3[C@@H]([C@H]2C(=O)NC(CC2CC2)C(=O)C(N)=O)C3(C)C)C2CCCCC2)CCCCC1", "note": "(stereo partly shown) [compound 4413]", "Ki": "< 75"}
{"smiles": "CC(C)[C@H](NC(=O)N[C@H](C(=O)N1C[C@H]2[C@@H]([C@H]1C(=O)NC(CC1CC1)C(=O)C(N)=O)C2(C)C)C(C)(C)C)C(=O)OCc1ccccc1", "note": "(stereo partly shown) [compound 4337]", "Ki": "< 75"}
{"smiles": "C[C@H](OC(=O)[C@@H](NC(=O)N[C@H](C(=O)N1C[C@H]2[C@@H]([C@H]1C(=O)NC(CC1CCC1)C(=O)C(N)=O)C2(Cl)Cl)C(C)(C)C)C(C)(C)C)c1ccccc1", "note": "(stereo partly shown) [compound 4362]", "Ki": "< 75"}
{"biological_target": "Recombinant heterodimeric HCV NS3/NS4A protease (strain 1a) (Hepatitis C virus genotype 1a, UniProt P27958)", "test": "Spectrophotometric assay for HCV protease inhibitory activity (chromogenic ester substrates)", "format": "biochemical", "details": "Table 6; read-out: Ki* range", "units": {"Ki": "nM"}}
{"smiles": "CC1(C)[C@@H]2[C@@H](C(=O)NC(CC3CC3)C(=O)C(N)=O)N(C(=O)[C@@H](NC(=O)NC3(Cc4cccc(OCc5ccccc5)c4)CCCCC3)C3CCCCC3)C[C@@H]21", "note": "(stereo partly shown) [compound 4977]", "Ki": "76 to 250"}
